This is one part of the list.
tested on: PfHDP1 homeodomain (GST-tagged); assay: gcPBM binding intensity (ln(normalized median fluorescence intensity)); higher = stronger DNA binding
Outline: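 GST-tagged P. falciparum DNA-binding domains, expressed in E. coli (about 25 μg on average), were applied for 1 h to an Agilent 4 × 180k array of primer-extended double-stranded 36-bp intergenic genomic probes plus negative controls. The binding buffer was 1× PBS with 1% milk, 0.2 mg/ml BSA, 0.5% salmon testes DNA and 0.03% Triton X-100. Bound protein was detected with Alexa488 anti-GST antibody and scanned at 488 nm. Binding intensity is the highest Masliner-normalised natural-log median intensity across replicate spots of either probe orientation.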

Sequence | gcPBM binding intensity (ln)
TTATATATAATATGACGTACAATTATACATTTTATG [XGTACX_site7598] | 6.43
TATACACATATTTTTACACACATATTTTTTCATATA [CACACA_site7244] | 6.95
ACGATTAAATCGATAATACACACTAAATGTAAAACA [CACACA_site119] | 6.63
TATATTATTTTTAGAAGTACTTATTGTTATAATTCT [XGTACX_site1015] | 6.09
AGAAAAGATAAAAATAGTACATATATATTTACTTAT [XGTACX_site7820] | 6.25
CTCCTTTCAAAAAAATGTACATGTTTACATTTCAAG [XGTACX_site7342] | 6.56
TAGGAAAAAAATACAGTGCAATTTTTATATAAATAA [GTGCAC_site9979] | 8.04
TACATATTTTATAACTGTACTTTTTTATTATCCAAT [XGTACX_site5396] | 6.53
TTTATATAAATCAAATGTACATATTCCAAATATATA [XGTACX_site8515] | 6.35
TTTTTTTTTTTTTTGTGTACTAATATTATAAATTTT [XGTACX_site4405] | 6.44
TTTTTTTTTTCAAATACATGCATTTATGTATAATAC [TGCATGCA_site722] | 6.32
TGCTTATTTAGAATTGTGCACAGCGAATATTCTGTT | 10.3
TACATTTATACTACTGCATTCAAAAAAAATAAAAAA [TGCATGCA_negctrl_site157] | 6.44
TTTTGTTATTTTTCAGTGCAATATGATAATAATATA | 9.56
GAATCCTTAATATGAACACACAAATATATTACCCAT [CACACA_site186] | 6.78
TCTTTTTAACAAAAAAAAAAAAAAAAAAAAAAATTA [CACACA_negctrl_site1637] | 5.72
AGAATTTTATTATATTGTACTTTTTATAAACCTTGT [XGTACX_site7495] | 6.34
ATATATTTACTTAATACACACAAAAAAAAAAAAAAA [CACACA_site3657] | 6.38
TTTAATTTTTATATAACACACATATTGGAATTATGT [CACACA_site734] | 6.43
TTATGTATTACCTGCCGTACTTCTAAAATAATTAAA [XGTACX_site1716] | 6.67
TTAAATGTGAAGTGAATACACACCTAATAAATATAA [CACACA_site3194] | 6.34
TTTTTTACATACAGAAATATATAATATAAAATAAAT [GTGCAC_negctrl_site278] | 6.25
ATATATTTTTAATTTGCATGTAGTAAAGCCTTAAAT [TGCATGCA_site593] | 6.55

Sequence | gcPBM binding intensity (ln)
CATCAAGTGAATTGTTGTACTTTACATTGTTTTTAT [XGTACX_site7261] | 6.76
ATGTTGTACAGACACACACACAAAAAAAAAATAAAA [CACACA_site7184] | 6.72
ATATATATATATATATGTACATACATACAATCATAT [XGTACX_site6410] | 9.3
TATAAATTTTGTTTAGCACACACACCGACATACATA [CACACA_site9033] | 7.12
TATAATAGCTTCTTTACACACACCATTTTTTTTTTT [CACACA_site1456] | 6.77
CTTACATATTACATATGTACATATACACCTTATGTC [XGTACX_site4679] | 6.75
TATAATATGTTATATACACACATTATAAAATACACA [CACACA_site6742] | 6.85
AAAAAAAAAATTAATTGTACTAAAAAAATATTATAT [XGTACX_site8903] | 6.41
TAATAATAAATAAAATGTACATATGAACAAATAAGT [XGTACX_site6710] | 7.2
TGTTTTCTTGATTATTGTACTTTAATTAGTAATATG [XGTACX_site8674] | 6.69
TAAATACATTTATGTACACACACATAGATGTATATT [CACACA_site5618] | 6.37
TGAATATTCATGTGTGTGCGCATGTTGTTAGACCAT [GTGCAC_site9869] | 7.39
AAAAATATTATAAGCACACATATATATATATATATA [CACACA_site2458] | 9.59
TGTTACAAAAAATAATGTACTTAATATATATATATA [XGTACX_site1016] | 8.88
TATCTTCATTTTTTTGGTACGCACGCAAATATGGCT [XGTACX_site3107] | 6.69
ACTGTCATTTATTGTAGTACGTCAATTTATTACATT [XGTACX_site2749] | 6.48
GTAGGTTACAAAATGTGAGAGAAGCAAATATAGAAA [CACACA_negctrl_site1819] | 6.96
CATCACCTTTTTAAATGTACGCATAATACCAAAAAA [XGTACX_site1587] | 6.54
TTTTGTTTTTAGTTTATACACACCATATTAATATAA [CACACA_site3102] | 7.58
TTGTATTAAAATCAAGTGCATATAATTTAAGTTCAT [GTGCAC_site9495] | 8.32
CTTTGGTTATAACACACATGCACACGTAAATAAATA [TGCATGCA_site976] | 9.14
ACTATTTTAAAAATATGTACATACGTTGTAATTTAA [XGTACX_site7999] | 6.67
TTTCCGGTAATATGGAAATATATGTGGGTTTTTTTT [CACACA_negctrl_site1536] | 6.41

Sequence | gcPBM binding intensity (ln)
CGAAGGATAAACATACGTACATATATGTGTATAATA [XGTACX_site779] | 7.11
TATATTTATAAATGAACACACACGCAATTTGAATCG [CACACA_site3370] | 7.05
CTGTATTTATTTTTCTGTACCAAATCACCCCTTGTA [XGTACX_site395] | 6.74
TTTCTTTTTCGATATACACACTGTATGTGTCTAAAA [CACACA_site6054] | 6.49
GATGTATAAAATAATACATGCATGTCCTACATATAT [TGCATGCA_site155] | 6.54
TACGTTTTATGACACACACACAAAAAAAAAAAAAAA [CACACA_site7764] | 6.37
TATAGCAAAATATTCACACAAACTATTAATAAAAGT [CACACA_site5795] | 6.55
AATGGTTATAATATATGTACATATAAATATACTGAA [XGTACX_site8533] | 6.6
AAAAAATACATCAAAAGAAACATATATATATATATA [GTGCAC_negctrl_site719] | 9.33
TTTTTTTTTTAGTATGAACACACATATATATTATAA [CACACA_site8957] | 6.49
TATAAAATAAATAACAAAAAAAATAAAATAAAAATA [TGCATGCA_negctrl_site297] | 6.49
ATAAAACTTATTTAACGTACATATTTTATATACCTT [XGTACX_site5353] | 6.41
TATAATAGTTCATAGGTGCAATATAATAAATTTATA [GTGCAC_site9573] | 9.52
AAAAAAAAAAAAAAAAGTACATGAAAAAAAGAAGAA [XGTACX_site8384] | 6.68
TATCATATATTATAGCGTACTTATTTATTTATTTAT [XGTACX_site1676] | 6.78
ATATAAGTACCTATAACACACATATATTATAAGTAT [CACACA_site7281] | 6.46
TAGAATAAATTAATTACACACGGAATTATATATATA [CACACA_site1616] | 7.23
ATAAATTAAAAACACACACACATCTGGATACCCCTA [CACACA_site5780] | 6.8
TTTTTATAAAAAATTTACACTATATGACAGAAGTAA [XGTACX_negctrl_site481] | 6.33
TGTGTAAAAATCATGGGTACACATTTTGATACCAAT [XGTACX_site1779] | 6.51
AATGAAAAGTAAAATACACACACATAATATAATTTA [CACACA_site8608] | 6.75
AAACTTGACGAACACACACACACATATATAAAAAAA [CACACA_site6494] | 6.85
AAGAAGAAACAAAACACACACAGTCTTCTTTTCTAT [CACACA_site3088] | 6.89

Sequence | gcPBM binding intensity (ln)
GTATATGAATAATATTTTATGGTAATTTTTTTTTTT [XGTACX_negctrl_site512] | 6.06
TACAGAATTGTATATAGTACATAAAACAATATATAT [XGTACX_site7275] | 6.71
AAAAAAAAAAAAAAGAGTACTCATATAAAAATATAA [XGTACX_site6551] | 6.2
GGTGGTAAAAAACCTGCATGTCGAAATATTAAATAC [TGCATGCA_site33] | 6.71
ATTTCTTTTTTTTTTTTTTTTAATGTAAAACATTTT [CACACA_negctrl_site1462] | 6.38
TTTTCTTTTTGTTCGTGTACACACATGAAATTTATA [XGTACX_site3301] | 6.84
AAACGTACATAATACACACACATGTATACATATAAA [CACACA_site2048] | 6.97
GAAGTTAGTGTTGACTGTACATATATATGTATATAT [XGTACX_site7243] | 6.52
AATCGAAATCGTGCACGGACACATGCAGTAGCCGAG [XGTACX_site6001] | 10.2
TTCCCCCCCAGACACACACACACATACATACCACAT [CACACA_site2305] | 7.98
TATACCTATAAATACACACACATATATAAATAAATA [CACACA_site6730] | 6.88
ATATATATACACAATAGTACGTGTAATATTATTATT [XGTACX_site2151] | 7.2
TCTTTTTATGTTCTAGAGCATTTTATTATTTAACAT [CACACA_negctrl_site1699] | 7.34
ATACTATTTAAATGGGTGCTAAAAATAACAAAAATT | 6.86
ATATTTTTATATGAGGTGCATATAATGACAATTAAG | 9.62
TACTATATATTATATAGTACATAAGATATACAACAT [XGTACX_site2929] | 6.64
AAGAAAATTAACCCATGTACTTATGTAGATAGCAAG [XGTACX_site1049] | 6.42
CAAAAAAAATTATACACACACACACCCATATATATA [CACACA_site1044] | 7.05
CAATATTATAGATATACACACATAATGTGTAAAAAC [CACACA_site6631] | 6.92
TAAAACTTAATATAAACACACAAAAATTAATAAATA [CACACA_site4370] | 6.48

— the supplement of paper PMC11417369
